# Source: the supplement of paper PMC11417369
# Some of the results follow.
# Tested on: PfAP2-HC AP2 domain (GST-tagged)
# Test: gcPBM binding intensity (ln(normalized median fluorescence intensity)); higher = stronger DNA binding
# Procedure, shortened: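 Each value is the highest Masliner-normalised natural-log median intensity across replicate spots of either orientation of a probe. The probes were primer-extended double-stranded 36-bp intergenic genomic sequences on an Agilent 4 × 180k array, alongside negative controls, exposed for 1 h to GST-tagged P. falciparum DNA-binding domains expressed in E. coli. Bound protein was picked up with Alexa488 anti-GST antibody and scanned at 488 nm.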
row,Sequence,gcPBM binding intensity (ln)
1,ATATTCTTGTTTAATACACACTGTAGTATTATATAT [CACACA_site4400],9.89
2,TCCCACTGTTATATTGAAAAAAAAAAAAAAAAAAAA [TGCATGCA_negctrl_site288],8.95
3,AGATAAAATATATATGCACACACATATATATTTCAT [CACACA_site9183],10
4,ATAATTATTTAATATATATATATTATTTCGAATGTT [GTGCAC_negctrl_site688],9.69
5,TAATTATTTAAAAAGAGTACATTTTTTTTTTTTTTT [XGTACX_site1060],9.31
6,TTAATAATTAATATATGTACTGATAAATAACATATA [XGTACX_site3966],9.44
7,ATTCTATATAAATATACACACATATATAAAATACAT [CACACA_site2293],9.88
8,GCGTATACTTGTAACGGTACACAGGAAATTATAGAA [XGTACX_site507],9.69
9,AAGATACACCTTTTTAGTACTTACATTTTTTTTATT [XGTACX_site1373],9.83
10,TCTTTGTTTTTTTTTTTTAAACAAAATCATCAAAGG [XGTACX_negctrl_site192],9.4
11,AATAAATATATATACACACCCATATATATATATATA [CACACA_site2595],9.63
12,TTAATGAAATATTATACACACAAAAAAATAATTTTA [CACACA_site4231],9.77
13,TAATGTTGTTTCTGAGGTACACAATTTTTTTTATTT [XGTACX_site8035],9.73
14,TACACTTTTTTTTGTACACACTAAAAAGATTAACAA [CACACA_site6037],9.57
15,TTTTTTTTTTGATGAGCACACATGTTTTTTCTTAGA [CACACA_site3171],9.64
16,AAAAAATATTTATGTTCACACATTTTATATATGATA [CACACA_site4821],9.63
17,AAATATTTTTAAAGAAGTACTTTTTAAAAATAATCT [XGTACX_site4897],9.27
18,CCAACATAGAGGGGCACACACATATATACCTAAAAA [CACACA_site5088],10.4
19,AGATTATAAAATTCTACACACATATATACCTATATA [CACACA_site5848],9.85
20,CTGTGTTTTGGTTGTACACACGCTACATTCTATATT [CACACA_site2698],10
21,AAAATAATTGTTTACACACCCATTTGTAATTTTACC [CACACA_site3614],9.84
22,ACCATACAGAATAATGCATGTTCCTTTTTATGAATA [TGCATGCA_site995],9.56
23,TATACTTGTAAATGCACACATAAGATGCGACTAATG [CACACA_site2118],9.73

row,Sequence,gcPBM binding intensity (ln)
1,AAAAAAATAAAGGATATACACACTAATTATATATAT [CACACA_site2812],9.81
2,TATAAAAGTAGACACACACACATATAAATATAAATA [CACACA_site6567],10.5
3,TCTATATCAACCAGTTGTACTGAATTTACTATATTT [XGTACX_site4205],9.8
4,AAAAAAAAAAATGGTTGTACTTTTTTTATTTGGTGC [XGTACX_site4498],9.44
5,GTAGACTGAAACCACACACACATATATAAATATATT [CACACA_site6433],10.4
6,ATAGACTTTTGTTTTGTTTTATTTTATTGTATTGTA [CACACA_negctrl_site618],9.73
7,ATATTATATTGGATGTTGCACTTAACAAAAGGATAT [GTGCAC_site9478],9.61
8,ATTTACATTATATTGAATATGCCATATTATATTATT [CACACA_negctrl_site811],9.78
9,TCTAACATATTTTTAATACACACTTAAAAAAGTACT [CACACA_site1366],9.54
10,AATGCTTTTCATCAAGTGCAATATGTTAATACAAAC [GTGCAC_site9619],9.4
11,AGAAAAAAAAAAAAAAAACACACGGTACATTCAAAG [CACACA_site2],9.88
12,TAATTTTCATATTTCTGTACATATATTATAAATATA [XGTACX_site3480],9.58
13,TAATATATATATATTACACACACGTATTATTAAATA [CACACA_site432],9.83
14,TGTATGTATAATTGAGTGCACAGAAAAAAAAAAGAA,9.85
15,AATTAAAAAGAAAAAAGTACATATTTTTTTAAAAAA [XGTACX_site7384],9.47
16,ATATATATATATATGTGTACTAATAAGGTTAAATAA [XGTACX_site1535],9.85
17,AAATATATATTTCTTAGTACATATGTATTTTTTTTT [XGTACX_site938],9.74
18,AATAAAAAAGAATATACACACATAAATATAAAATAT [CACACA_site683],10
19,ACAAAATGTAGATATTGTACATATTGTAGATATTGT [XGTACX_site7619],9.82
20,TTTGACAAATTATTGTGTACACAATATTATTATATA [XGTACX_site8320],9.81
21,ATTTAAGATTTAATCACACACATATAGATTATAGAC [CACACA_site7383],10
22,ATGAAGAAGTGTAAATGTACATTTTATGTAGAACAA [XGTACX_site6925],9.82
23,TTTACAGAAAGTTACATACACACTAATATTTACACC [CACACA_site1009],9.79

row,Sequence,gcPBM binding intensity (ln)
1,TTTATATGTATTAAGTGTACACATATAATGTGTTTG [XGTACX_site6629],9.79
2,TATAAGAGGATATATACACACAAAAATATGTACAGT [CACACA_site6885],10
3,TTATTTTTTTTTTATTGTACTAGGAAAATTTCGATA [XGTACX_site702],9.43
4,TAATATTAATCCTAGTGTACATTAATTTATATGTAT [XGTACX_site3583],9.61
5,ATTATATATATATAAACACACAAATATTTTTATATA [CACACA_site5005],9.7
6,ACCTATATAAGTTATACACACAAATATAGATATATA [CACACA_site7356],9.87
7,TACAGACAGAAATGCACACACATATTTATATTTATA [CACACA_site7139],10.1
8,CTTCCTTAGGAATGTACACACATATATAATATGTTG [CACACA_site461],9.81
9,TTTTCTTACTATTGTAGTACAATATTATATTCTTTT [XGTACX_site1925],10
10,TATAAATATGTATATACACACTTTTAATATTCATAA [CACACA_site7856],9.68
11,TGCGTATTCTTATTAGGTACACATATTCGTGATAAT [XGTACX_site5681],9.61
12,TAATATTTTTATTATTAGAATTGTATATGTTTAATA [CACACA_negctrl_site1833],9.21
13,TTTTCTAAAATATTCATAATAAATCAAAAAAAAAAA [GTGCAC_negctrl_site320],9.29
14,CATATATCATAAATATGTACGAAATAAAAGAATCAT [XGTACX_site942],9.71
15,ATAAAAGGAATATTTGCATGTGGTAGTACATAACAT [TGCATGCA_site978],9.71
16,TACAAATATAGACACACACACATATATATATATATA [CACACA_site585],10.1
17,GATTTATATATATAAAATAATTGAATATTTTCTTTT [CACACA_negctrl_site801],9.48
18,TAATTTGAAAAATTGTGTACTCATAAAATAAATAAA [XGTACX_site2138],9.52
19,ATAAAAAAATAAAACACACACATATAGATTATAGAT [CACACA_site7343],10.3
20,ATAGATGATATACGTAAACACACAAATAAAAAAAAT [CACACA_site9095],9.99
21,TTTATTTTTCATAATTGTACAAAAATAAATGGAAAC [XGTACX_site5144],9.47
22,TACATACAGATATATACACACATATAAAATATAGAT [CACACA_site6319],9.95
23,ATTATATATAAATATACACACATATATAAAATACAT [CACACA_site5298],9.89

row,Sequence,gcPBM binding intensity (ln)
1,AAGAGAAAAATATGGTTGCACTAAAAATATATATTT,9.57
2,AAATTAAAAAGAGCTTGTACAGATGTATACATAATA [XGTACX_site3882],9.97
3,TTTATAATTCTTACAACACACAATGTACATTTATAT [CACACA_site1261],9.92
4,TATATGAAGCTATAGACACACATATAAAAATAGAAT [CACACA_site1313],9.9
5,AATTTATATGTTTTGTGTACACAATTTATTAAATTA [XGTACX_site6448],9.87
6,TACATATATATATGTATATATATATATATATAAATA [XGTACX_negctrl_site351],9.76
7,AAATGTGCATTATGTTGTACAGTCGAAATTTTTTTT [XGTACX_site3812],9.65
8,ACATAACTGATATATACACACAATACAAATATAGAT [CACACA_site7328],10
9,ATGAATAAATGAACATGTACATATATATATATATTA [XGTACX_site5005],9.81
10,TAAAAAATTAATAAAGTGCATAAATATTACAATATT,9.66
11,TTTTCTAAATATTATAGTACTCTTAATAATATTAAC [XGTACX_site4222],9.34
12,TTAACAAAATATAGCACACATAAATATATATTTATG [CACACA_site351],9.71
13,ATTCATATATTTATTGCATGCAAAGTAAAATAAATA [TGCATGCA_site307],9.56
14,GACATATTAGAAGGGTGTACATACTTTTAATCATTT [XGTACX_site1698],9.7
15,AATATTAAAATATAAACACACAAAATTCAATTATAT [CACACA_site5971],9.89
16,TCTTACAAAAAACAAACAGAGAAAAATATAAGGAAA [XGTACX_negctrl_site520],9.61
17,CATACACAAGAAAATTCACACACACCCATATATATA [CACACA_site9288],11.3
18,AACATACAGAAACACACACACACACCCACACCCACA [CACACA_site493],11.5
19,TTTTTTTTTTTGTATCGTACATTTATAATGTTTATA [XGTACX_site6804],9.68
20,TTTTTTTCATATAACACACACACAAAAATAATGTGG [CACACA_site3688],10
